Source: publication PMC4802085
No constants are given. Whether binding was seen depends on the method and setting. In cells and extracts the contact can be indirect. Some entries that bind do so weakly or less than the wild type.

Amino acid sequences for entries named in this document (tags omitted). A change or cut given only in a name is not applied to a line headed by its entry. Chains listed by the source or under a name are the forms on record and can include a tag or linker. Residues count along the entry.
FLAG-PGRMC1 wild-type (a.a.44–195) (O00264, residues 44-195): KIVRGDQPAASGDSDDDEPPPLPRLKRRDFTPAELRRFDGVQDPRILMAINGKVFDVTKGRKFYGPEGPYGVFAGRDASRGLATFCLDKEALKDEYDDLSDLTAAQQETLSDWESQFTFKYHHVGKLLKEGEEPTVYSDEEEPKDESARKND
FLAG-PGRMC1 Y113F mutant (a.a.44–195) (O00264, form named): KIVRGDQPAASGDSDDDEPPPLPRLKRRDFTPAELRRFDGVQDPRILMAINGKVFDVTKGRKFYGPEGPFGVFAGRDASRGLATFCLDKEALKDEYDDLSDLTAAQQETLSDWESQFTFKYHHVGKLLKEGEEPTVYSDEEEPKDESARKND

How the values were obtained:
[1] = molecular target: FLAG-PGRMC1 wild-type (a.a.44–195) (human) (UniProt O00264); assay: co-IP; in vitro binding assay as a18 with FLAG-PGRMC1 in apo form (no haemin); only the target purified
[2] = molecular target: FLAG-PGRMC1 wild-type (a.a.44–195) (human) (UniProt O00264); assay: co-IP; in vitro binding assay: 1 μg CYP1A2 or CYP3A4 (microsomal formulation containing cytochrome b5 and cytochrome P450 reductase) with 10 μg FLAG-PGRMC1 (a.a.44–195) treated with 50 μmol l^−1 haemin, anti-FLAG (M2) agarose; 20 mmol l^−1 HEPES-NaOH (pH 7.9), 100 mmol l^−1 NaCl, 0.2 mmol l^−1 EDTA, 10% glycerol, 0.1% NP40, room temperature; only the target purified
[3] = molecular target: FLAG-PGRMC1 Y113F mutant (a.a.44–195) (human) (UniProt O00264); assay: as above
[4] = molecular target: FLAG-PGRMC1 wild-type (a.a.44–195) (human) (UniProt O00264); assay: condition: only with 10 μmol l^−1 CORM3 under reducing conditions; co-IP; in vitro binding assay as a18, haem-bound FLAG-PGRMC1, reducing conditions (5 mmol l^−1 sodium dithionite), with 10 μmol l^−1 CORM3; only the target purified

B1: Recombinant CYP1A2 (enzyme, UniProt P05177 1-516)
chain: MALSQSVPFSATELLLASAIFCLVFWVLKGLRPRVPKGLKSPPEPWGWPLLGHVLTLGKNPHLALSRMSQRYGDVLQIRIGSTPVLVLSRLDTIRQALVRQGDDFKGRPDLYTSTLITDGQSLTFSTDSGPVWAARRRLAQNALNTFSIASDPASSSSCYLEEHVSKEAKALISRLQELMAGPGHFDPYNQVVVSVANVIGAMCFGQHFPESSDEMLSLVKNTHEFVETASSGNPLDFFPILRYLPNPALQRFKAFNQRFLWFLQKTVQEHYQDFDKNSVRDITGALFKHSKKGPRASGNLIPQEKIVNLVNDIFGAGFDTVTTAISWSLMYLVTKPEIQRKIQKELDTVIGRERRPRLSDRPQLPYLEAFILETFRHSSFLPFTIPHSTTRDTTLNGFYIPKKCCVFVNQWQVNHDPELWEDPSEFRPERFLTADGTAINKPLSEKMMLFGMGKRRCIGEVLAKWEIFLFLAILLQQLEFSVPPGVKVDLTPIYGLTMKHARCEHVQARLRFSIN
- binding [1]: no binding (condition: without haem (apo form))
- binding [2]: binds
- binding [3]: no binding
- binding [4]: no binding
